Experimental findings from the supplement of paper PMC4723716 are described below.

Structures are written as SMILES. ± gives the uncertainty stated by the source. In all, about 9,900 compounds were measured (“viability index relative to DMSO control”: median about 1, lowest 2% from about 0.85 on). This is one part of the list.

The assay relates to Plasmodium falciparum NF54 stage V gametocytes. The experiment in a line: viability index relative to DMSO control (fraction); higher = less gametocyte killing. Particulars: 2.5 µM, library set: Broad Institute DOS, incubation time: 72 h. An outline of the steps:
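Viability index is the count of red-stained particles in a well divided by the plate mean of solvent-only wells. Particles of 20–70 µm2 were counted in one imaged field per well after one to two hours with 3 µl of 2.5 µM MitoTracker Red CMXRos and 0.13% saponin. Before staining, P. falciparum NF54 stage V gametocytes in serum-free medium (0.75% gametocytemia, 1.25% hematocrit, 10 µl, 1,536-well plates) were kept with compound at 2.5 µM for 72 hr at 37°C under low oxygen.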
In turn, `COCC(=O)NC[C@@H]1[C@@H](c2ccccc2)[C@@H](CO)N1C(=O)c1ccccc1` had a viability index of 0.9668 ± 0.0031.

The compound `CO[C@@H]1CN(C)C(=O)c2ccc(NC(C)=O)cc2OC[C@H](C)N(C(=O)c2cnccn2)C[C@@H]1C` registered a viability index of 1.15 ± 0.013.

Take `CN(C)C(=O)c1cccc(-c2ccccc2[C@H]2[C@@H](C#N)N(C(=O)C3CCCCC3)[C@@H]2CO)c1`: the viability index was 1.13 ± 0.062.

On to `CN1CCN(C(=O)C[C@@H]2CC[C@@H]3[C@H](COC[C@@H](O)CN3Cc3cccc(-c4ccncc4)c3)O2)CC1`, for which the viability index came to 1.06 ± 0.083.

For the compound `O=C(C[C@H]1C=C[C@@H](NC(=O)c2ccc3c(c2)OCO3)[C@H](CO)O1)NC1Cc2ccccc2C1`, the viability index worked out at 0.941 ± 0.069.

`O=C(O)[C@@H]1[C@@H](CO)[C@@H]2Cn3c(ccc(C4=CCCCC4)c3=O)[C@@H]2N1Cc1ccc2c(c1)OCO2` gave a viability index of 1.04 ± 0.042.

In turn, `O=C(NC1CCCCC1)[C@H]1[C@H](CO)[C@H]2Cn3c(cccc3=O)[C@@H]1N2Cc1cccnc1` had a viability index of 1.09 ± 0.021.

Turning to `C[C@@H]1CN([C@@H](C)CO)C(=O)c2cccc(NC(=O)c3ccc(-c4nccs4)cc3)c2O[C@@H]1CN(C)C(=O)Nc1ccc(C(F)(F)F)cc1`, the viability index came out at 0.556 ± 0.084.

`O=C(O)[C@H]1[C@H](CO)[C@H]2Cn3c(ccc(-c4cccc(F)c4)c3=O)[C@H]2N1C(=O)c1ccccn1` registered a viability index of 1.03 ± 0.16.

Regarding `O=C(Nc1ccc(C(F)(F)F)cc1)N[C@@H]1C=C[C@H](CC(=O)N2CCCCC2)O[C@@H]1CO`, the viability index came to 1.15 ± 0.12.

Consider `COc1ccc(CNC(=O)C[C@H]2CC[C@@H](NC(=O)CN(C)C)[C@@H](CO)O2)cc1`, for which the viability index was determined as 1.079 ± 0.0035.

In turn, `CCCNC(=O)N1[C@H](CO)[C@@H]2c3ccccc3N(C(=O)c3ccncc3)C[C@@H]21` had a viability index of 0.997 ± 0.076.

In turn, `COc1ccc2c3c([C@@H](CO)N(C[C@]33CN(C3)C(=O)Nc3cccc(F)c3)C(=O)C3CCOCC3)n(C)c2c1` returned a viability index of 1.06 ± 0.05.

With `CCS(=O)(=O)N[C@@H]1CC[C@@H](CC(=O)N2CCCCC2)O[C@@H]1CO`, the viability index is 1.02 ± 0.036.

In turn, `COc1ccc2c3c([C@H](CO)NC[C@]33CCN(Cc4cc(on4)-c4ccccc4)CC3)n(C)c2c1` registered a viability index of 0.893 ± 0.015.

Turning to `C[C@@H]1CN([C@H](C)CO)C(=O)c2ccccc2-c2ccccc2CO[C@@H]1CN(C)S(=O)(=O)Cc1ccccc1`, the viability index worked out at 1.06 ± 0.17.

With `C/C=C/c1ccc2n(c1=O)C[C@H]1[C@H](CO)[C@@H](C(=O)N3CCOCC3)N(Cc3ccccc3)[C@@H]21.C/C=C\c1ccc2n(c1=O)C[C@H]1[C@H](CO)[C@@H](C(=O)N3CCOCC3)N(Cc3ccccc3)[C@@H]21`, the viability index turned out to be 1.04 ± 0.072.

`CCS(=O)(=O)N1C[C@@]2(C1)CN(Cc1ccc3OCOc3c1)[C@@H](CO)c1[nH]c3cc(OC)ccc3c21`: the viability index was determined as 0.971 ± 0.11.

On to `CC(C)CC#Cc1ccc([C@@H]2[C@@H](CO)N3CCCCN(C(=O)Nc4ccccc4)C[C@H]23)cc1`, for which the viability index was determined as 0.844 ± 0.032.

In the case of `Cc1ccc(S(=O)(=O)N(C)C[C@@H]2Oc3c(NS(C)(=O)=O)cccc3C(=O)N([C@H](C)CO)C[C@@H]2C)cc1`, the viability index is 0.939 ± 0.13.

Take `CN1C(=O)c2cc(NS(=O)(=O)c3ccccc3F)ccc2OC[C@H]2O[C@H](CC(=O)NC3Cc4ccccc4C3)CC[C@@H]21`: the viability index came out at 0.888 ± 0.013.

The compound `CNC[C@@H]1OCCCC[C@H](C)Oc2ccc(NC(=O)Nc3ccc(OC)cc3)cc2C(=O)N([C@@H](C)CO)C[C@H]1C` came in with a viability index of 1.12 ± 0.033.

In turn, `CC(=O)N1[C@@H](CO)[C@@H]2c3ccccc3N(C(=O)c3ccc(F)cc3)C[C@@H]21` had a viability index of 0.965 ± 0.13.

Turning to `Cn1cnc(S(=O)(=O)N[C@@H]2CC[C@H](CC(=O)NCC3CCCCC3)O[C@H]2CO)c1`, the viability index was determined as 1.04 ± 0.054.

Regarding `CO[C@@H]1CN(C)C(=O)c2cc(NS(=O)(=O)c3ccc(C)cc3)ccc2OC[C@@H](C)N(Cc2ccccn2)C[C@H]1C`, the viability index is 1.1 ± 0.092.

For the compound `O=C(C[C@H]1C=C[C@@H](NS(=O)(=O)c2ccc(F)cc2)[C@@H](CO)O1)N1CCc2ccccc2C1`, the viability index came to 0.974 ± 0.075.

`C[C@@H]1CN([C@@H](C)CO)C(=O)c2ccccc2-c2ccccc2CO[C@@H]1CN(C)C(=O)[C@@H]1CCCN1C`: the viability index turned out to be 0.936 ± 0.093.

For the compound `CCNC(=O)[C@H]1[C@H](CO)[C@H]2Cn3c(ccc(/C=C/c4ccccc4)c3=O)[C@@H]1N2C(=O)c1ccncc1`, the viability index was 0.98739 ± 0.00081.

Compound `COc1ccccc1S(=O)(=O)N(C)C[C@H]1OCc2ccccc2-c2ccccc2C(=O)N([C@@H](C)CO)C[C@@H]1C` had a viability index of 0.963 ± 0.048.

As for `Cc1noc(C)c1NC(=O)N(C)C[C@H]1Oc2cc(C#CCN(C)C)ccc2S(=O)(=O)N([C@@H](C)CO)C[C@@H]1C`, the viability index is 1.015 ± 0.007.

In turn, `C/C=C/c1ccc([C@H]2[C@@H](CO)N(c3nc(CC)cs3)[C@H]2C#N)cc1` showed a viability index of 1.09 ± 0.035.

Take `CCCC(=O)N1CC[C@@]2(CC1)CN([C@@H](CO)c1c2c2ccc(OC)cc2n1C)C(C)=O`: the viability index worked out at 1.03 ± 0.076.

For the compound `O=C(NCC[C@@H]1CC[C@@H](NC(=O)c2ccncc2)[C@@H](CO)O1)Nc1ccc(Cl)cc1`, the viability index stood at 1.03 ± 0.098.

Consider `O=C(O)C[C@@H]1CC[C@H]2[C@@H](COC[C@H](O)CN2S(=O)(=O)c2ccc(Oc3ccccc3)cc2)O1`, for which the viability index was 1.067 ± 0.0063.

Take `COc1ccc(-c2ccc([C@@H]3[C@@H]4CN(C(=O)c5cnccn5)C[C@H]3N4)cc2)cc1`: the viability index came out at 0.958 ± 0.052.

`C[C@H]1CN([C@@H](C)CO)C(=O)CCCn2nncc2CO[C@@H]1CN(C)Cc1cccc(C(F)(F)F)c1` had a viability index of 1.012 ± 0.0049.

In turn, `COc1ccccc1-c1ccc2c(c1)O[C@@H](CN(C)CC1CCOCC1)[C@@H](C)CN([C@H](C)CO)S2(=O)=O` had a viability index of 1.08 ± 0.046.

`O=C(NC1CCCC1)N1[C@@H]2CNC[C@H]1[C@@H]2c1ccc(-c2cccnc2)cc1` had a viability index of 0.973 ± 0.07.

Compound `N#C[C@@H]1[C@H](c2ccccc2C2=CCCCC2)[C@H](CO)N1C(=O)CN1CCOCC1` had a viability index of 1.17 ± 0.13.

Consider `CCN1[C@@H]2Cn3c(ccc(-c4ccncc4)c3=O)[C@H]1[C@@H](C(=O)NCCc1cn(C)cn1)[C@@H]2CO`, for which the viability index stood at 0.959 ± 0.073.

As for `O=C(C[C@@H]1CC[C@H]2NC[C@@H](O)COC[C@@H]2O1)NCCN1CCCCC1`, the viability index was found to be 1.02 ± 0.059.

The compound `COc1ccc(NC(=O)N(C)C[C@H]2OCCCC[C@H](C)Oc3ccc(NC(=O)c4ccncc4)cc3C(=O)N([C@@H](C)CO)C[C@@H]2C)cc1` registered a viability index of 1.09 ± 0.078.

Regarding `C/C=C/c1ccc([C@H]2[C@@H](CO)N3C(=O)CN(C(=O)c4ccncc4)C[C@@H]23)cc1`, the viability index stood at 1.03 ± 0.092.

In turn, `O=C(C[C@H]1CC[C@@H](NC(=O)Nc2ccc(C(F)(F)F)cc2)[C@@H](CO)O1)NCc1cccc(F)c1` gave a viability index of 0.908 ± 0.057.

For `COCC(=O)N1[C@@H](CO)[C@@H]2c3ccccc3N(C(=O)c3cccnc3)C[C@@H]21`, the viability index was found to be 0.998 ± 0.087.

`COc1ccc2c3c([nH]c2c1)[C@H](CO)N(C[C@]31CCN(CC1)C(=O)c1ccccc1F)C(=O)Nc1ccc(F)cc1`: the viability index turned out to be 0.961 ± 0.076.

`O=C(C[C@H]1CC[C@@H](NC(=O)CN2CCOCC2)[C@@H](CO)O1)NC1CCC1`: the viability index was found to be 1.089 ± 0.0083.

`OC[C@@H]1[C@H](c2ccc(C#Cc3ccccc3F)cc2)[C@@H]2CN(CC3CCOCC3)CCCCN12` showed a viability index of 1.029 ± 0.0035.

On to `CN1C[C@H]2[C@@H](c3ccccc31)[C@@H](CO)N2C(=O)C1CCOCC1`, for which the viability index was determined as 0.97 ± 0.087.

On to `COc1ccccc1NC(=O)N1CC(=O)N2[C@H](C1)[C@H](c1ccc(-c3cccc(C)c3)cc1)[C@@H]2CO`, for which the viability index is 1.04 ± 0.0015.

Compound `CN1c2ccc(Br)cc2[C@H]2[C@H](CCN2C(=O)C2CCC2)[C@H]1CO` came in with a viability index of 1.12 ± 0.064.

With `O=C(C[C@@H]1CC[C@@H]2[C@H](COC[C@H](O)CN2CCC(F)(F)F)O1)NCC1CC1`, the viability index turned out to be 1.08 ± 0.02.

In turn, `C[C@@H]1CN([C@H](C)CO)S(=O)(=O)c2ccc(-c3ccncc3)cc2O[C@H]1CN(C)S(C)(=O)=O` returned a viability index of 0.899 ± 0.17.

`C/C=C/c1ccc([C@H]2[C@@H]3CN(C(=O)Nc4ccccc4F)C[C@H]2N3)cc1` registered a viability index of 1.06 ± 0.034.

In the case of `CO[C@@H]1CN(C)C(=O)c2ccc(NC(=O)c3cccc(F)c3)cc2OC[C@H](C)NC[C@H]1C`, the viability index is 1.14 ± 0.027.

Turning to `O=C(C[C@H]1C[C@@H]2c3cc(NC(=O)Nc4ccccc4)ccc3O[C@@H]2[C@@H](CO)O1)NCc1ccccc1`, the viability index stood at 1.019 ± 0.0055.

For `O=C(C[C@@H]1CC[C@H](NC(=O)c2ccc(F)cc2)[C@@H](CO)O1)NCCc1ccccc1`, the viability index stood at 1.078 ± 0.0076.

In turn, `CN(C)C(=O)c1cc2c(c(-c3cccc(C4=CCCCC4)c3)n1)[C@@H](CCO)N(S(C)(=O)=O)C2` displayed a viability index of 1.06 ± 0.065.

`O=C(C[C@@H]1C=C[C@H](NC(=O)c2ccncc2)[C@H](CO)O1)NCC1CC1` registered a viability index of 1.125 ± 0.0058.

In turn, `CCCNC(=O)Nc1ccc2c(c1)C(=O)N(C)C[C@H](OC)[C@H](C)CN(C)[C@H](C)CO2` displayed a viability index of 1.12 ± 0.072.

In turn, `CCC(=O)N1[C@H](C(=O)N(C)C)[C@@H](CO)[C@@H]2Cn3c(ccc(-c4ccc(F)cc4)c3=O)[C@@H]21` gave a viability index of 0.996 ± 0.046.

Regarding `C[C@@H]1CN([C@@H](C)CO)C(=O)c2cc(-c3cccc(C#N)c3)cnc2O[C@@H]1CN(C)C(=O)C1CCOCC1`, the viability index was found to be 1.06 ± 0.035.

`COc1ccccc1CN1C[C@@H]2N[C@H](C1)[C@H]2c1ccc(-c2ccncc2)cc1`: the viability index stood at 1.12 ± 0.11.

Regarding `C[C@H]1CN([C@@H](C)CO)C(=O)c2cc(-c3ccc(F)cc3)cnc2O[C@@H]1CN(C)S(C)(=O)=O`, the viability index came out at 1.05 ± 0.02.

The compound `O=C(C[C@@H]1C[C@@H]2c3cc(NC(=O)Nc4ccccc4)ccc3O[C@@H]2[C@@H](CO)O1)NCc1ccccc1` registered a viability index of 1.015 ± 0.0017.

In turn, `CO[C@@H]1CN(C)C(=O)c2cc(NC(=O)C3CCCCC3)ccc2OC[C@H](C)N(Cc2cccnc2)C[C@H]1C` gave a viability index of 1.12 ± 0.073.

In turn, `CN1C(=O)c2cc(NS(C)(=O)=O)ccc2OC[C@H]2O[C@H](CC(=O)NCc3ccccc3)CC[C@H]21` yielded a viability index of 1.12 ± 0.043.

For the compound `CO[C@H]1CN(C)C(=O)c2ccc(NC(C)=O)cc2OC[C@@H](C)N(Cc2cccc(F)c2)C[C@H]1C`, the viability index was 1.11 ± 0.017.

In turn, `COc1ccccc1-c1ccc2c(c1)[C@H]1[C@H](CCN1C(=O)CN1CCOCC1)[C@H](CO)N2C` came in with a viability index of 1.11 ± 0.095.

`CCCNC(=O)N1CC(=O)N2[C@H](CO)[C@@H](c3ccc(-c4ccc(F)cc4)cc3)[C@H]2C1` showed a viability index of 0.946 ± 0.012.

`O=C([C@H]1[C@H](CO)[C@H]2Cn3c(ccc(C4=CCCC4)c3=O)[C@@H]1N2C(=O)c1cccnc1)N1CCOCC1` registered a viability index of 1.07 ± 0.068.
